Some results are limits rather than exact numbers.

What is called Kd is the free concentration of one partner at which half of the binding sites on the other are occupied at equilibrium, for simple one-to-one binding. The low end stands for a tighter complex, the high end for a looser complex.

The target in test [1] is EF-Tu•GTP R318A (Escherichia coli, UniProt P0CE47, R319A). In words: biochemical.
Test [2] has as its target EF-Tu R318A H319A E378A (Escherichia coli, UniProt P0CE47, E379A/H320A/R319A). The conditions noted are these: MST, Fig. S5.
The test system of test [3] is E. coli cells with EF-Tu R318K. Particulars: cells with EF-Tu R318K as only copy.

Consider `CCCn1nnnc1NC(=O)c1cccc(Cl)c1` [KKL-55], for which the Kd in test [1] was > 30 µM. In addition, in test [1] (fold higher than wild-type EF-Tu), the “Kd of R318A mutant relative to wild-type EF-Tu” value came to 15 fold. Also, the “binding with triple alanine mutant EF-Tu” value in test [2] was “abolished detectable binding”. Besides, the “MIC compared with wild type” value in test [3] is listed as “same MIC for KKL-55 as the wild type”.
